Values marked as one replicate rest on one cluster of the flow cell; about a third of the high ones do not repeat.
test system: ATP; assay: switch fluorescence ratio, 500 uM ATP over buffer (Cy3 cluster intensity, sum of 5 cycles each) (fold (ratio)); higher = stronger signal-on switching upon ATP binding; sequences stand for … in TCGTCGGCAGCGTCAGATGTGTATAAGAGACAGTTTTTTTTTTTTTTTTTTTTTTTTT…TC; conditions: aptamer strand: ATP DNA aptamer (quencher-CACCTGGGGGAGTATTGCGGAGGAAGG + anchor), 100 nM annealed; ATP concentration: 500 uM; one replicate
Outline: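 After annealing to 100 nM quencher-labelled ATP aptamer, Cy3-labelled switching-strand clusters on a modified Illumina MiSeq flow-cell were imaged in selection buffer. A second image followed after 15 min with 500 uM ATP at 22 °C, and five such buffer/ATP cycles were done, each separated by NaOH stripping and re-annealing. The fluorescence ratio, averaged per switch-domain sequence, is summed target-cycle over summed buffer-cycle Cy3 intensity per cluster, with clusters outside 100-1000 RFU excluded.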
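Note: ATP exposure 15 min at 22 °C before imaging.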

**Q.** Which switch fluorescence ratio does the source give for TATTTGTCGT here?
**A.** 0.938

**Q.** With TATTTTACTT as the sequence, how does the switch fluorescence ratio read?
**A.** 1.02

**Q.** With TATTTTCCTT as the sequence, how does the switch fluorescence ratio read?
**A.** 0.939

**Q.** For TATTTTCGAT, which switch fluorescence ratio is on record?
**A.** 1.09

**Q.** Which switch fluorescence ratio does the source give for TCAAAACCAA here?
**A.** 1.04

**Q.** TCAAAAGTTT was tested. Which switch fluorescence ratio did it give?
**A.** 1.01

**Q.** How did the switch fluorescence ratio turn out when TCAAAATAAT was run?
**A.** 1.02

**Q.** For TCAAAGGCAC, which switch fluorescence ratio is on record?
**A.** 1.48

**Q.** For TCAAAGGCGG, which switch fluorescence ratio is on record?
**A.** 0.976

**Q.** For TCAAATAGAA, which switch fluorescence ratio is on record?
**A.** 1.01

**Q.** With TCAACGCGT as the sequence, how does the switch fluorescence ratio read?
**A.** 1.05

**Q.** How did the switch fluorescence ratio turn out when TCAACTCAGG was run?
**A.** 1.04

**Q.** TCAAGACTAT was tested. Which switch fluorescence ratio did it give?
**A.** 1

**Q.** With TCAAGATTAA as the sequence, how does the switch fluorescence ratio read?
**A.** 0.973

**Q.** Which switch fluorescence ratio does the source give for TCAAGATTCA here?
**A.** 0.975

**Q.** For TCAAGATTGA, which switch fluorescence ratio is on record?
**A.** 0.998

**Q.** Which switch fluorescence ratio does the source give for TCAAGCCTGT here?
**A.** 0.974

**Q.** With TCAAGCTAGT as the sequence, how does the switch fluorescence ratio read?
**A.** 1.03

**Q.** Which switch fluorescence ratio does the source give for TCAAGGAATG here?
**A.** 0.955

**Q.** How did the switch fluorescence ratio turn out when TCAAGTCCAT was run?
**A.** 1.03

**Q.** TCAATAAAAC was tested. Which switch fluorescence ratio did it give?
**A.** 0.983

**Q.** Which switch fluorescence ratio does the source give for TCAATAACAA here?
**A.** 1

**Q.** With TCAATCCCAT as the sequence, how does the switch fluorescence ratio read?
**A.** 1.05

**Q.** How did the switch fluorescence ratio turn out when TCAATTCCGG was run?
**A.** 1.03

**Q.** With TCACAGTACA as the sequence, how does the switch fluorescence ratio read?
**A.** 1.4

**Q.** With TCACATTTGT as the sequence, how does the switch fluorescence ratio read?
**A.** 1.01

**Q.** For TCACGCATGG, which switch fluorescence ratio is on record?
**A.** 1.3

**Q.** Which switch fluorescence ratio does the source give for TCACGCTTGC here?
**A.** 1.14

**Q.** TCACGTGTGT was tested. Which switch fluorescence ratio did it give?
**A.** 1.01

**Q.** With TCACTAATTG as the sequence, how does the switch fluorescence ratio read?
**A.** 0.968

**Q.** How did the switch fluorescence ratio turn out when TCACTATGAC was run?
**A.** 1.07

**Q.** For TCACTATTAT, which switch fluorescence ratio is on record?
**A.** 0.973

**Q.** How did the switch fluorescence ratio turn out when TCACTTTATA was run?
**A.** 1.08

**Q.** TCAGAACGCG was tested. Which switch fluorescence ratio did it give?
**A.** 1.03

**Q.** How did the switch fluorescence ratio turn out when TCAGAACGGA was run?
**A.** 1.06

**Q.** How did the switch fluorescence ratio turn out when TCAGACGGG was run?
**A.** 0.976

**Q.** Which switch fluorescence ratio does the source give for TCAGCACCAT here?
**A.** 0.989

**Q.** For TCAGCAGTGG, which switch fluorescence ratio is on record?
**A.** 1.92

**Q.** With TCAGCGCTGG as the sequence, how does the switch fluorescence ratio read?
**A.** 0.986

**Q.** How did the switch fluorescence ratio turn out when TCAGGCGCGC was run?
**A.** 1

**Q.** For TCAGGGCTGG, which switch fluorescence ratio is on record?
**A.** 0.991

**Q.** For TCAGGGGG, which switch fluorescence ratio is on record?
**A.** 0.957

**Q.** Which switch fluorescence ratio does the source give for TCAGGGTGT here?
**A.** 1.02

**Q.** How did the switch fluorescence ratio turn out when TCAGGTAGC was run?
**A.** 1.01

**Q.** With TCAGGTGCTC as the sequence, how does the switch fluorescence ratio read?
**A.** 1.94

**Q.** TCAGGTGTTG was tested. Which switch fluorescence ratio did it give?
**A.** 1.41

**Q.** TCAGTACCGA was tested. Which switch fluorescence ratio did it give?
**A.** 0.997

**Q.** How did the switch fluorescence ratio turn out when TCAGTCATAT was run?
**A.** 0.973

**Q.** With TCAGTCCAC as the sequence, how does the switch fluorescence ratio read?
**A.** 1

**Q.** TCAGTCCCTT was tested. Which switch fluorescence ratio did it give?
**A.** 0.978

**Q.** TCAGTCCG was tested. Which switch fluorescence ratio did it give?
**A.** 1.08

**Q.** For TCAGTCGCTG, which switch fluorescence ratio is on record?
**A.** 1.05

**Q.** Which switch fluorescence ratio does the source give for TCAGTGGGCG here?
**A.** 0.906

**Q.** Which switch fluorescence ratio does the source give for TCAGTTACCT here?
**A.** 1.19

**Q.** Which switch fluorescence ratio does the source give for TCAGTTGCAG here?
**A.** 0.983

**Q.** Which switch fluorescence ratio does the source give for TCAGTTTGAA here?
**A.** 1

**Q.** With TCATAAACGC as the sequence, how does the switch fluorescence ratio read?
**A.** 1.08

**Q.** How did the switch fluorescence ratio turn out when TCATAAGAGT was run?
**A.** 0.991

**Q.** For TCATACGGCA, which switch fluorescence ratio is on record?
**A.** 1.23

**Q.** TCATAGATTG was tested. Which switch fluorescence ratio did it give?
**A.** 1

**Q.** Which switch fluorescence ratio does the source give for TCATAGGGCG here?
**A.** 1.03

**Q.** How did the switch fluorescence ratio turn out when TCATATAATC was run?
**A.** 0.996

**Q.** Which switch fluorescence ratio does the source give for TCATATACTG here?
**A.** 1.01

**Q.** TCATATTTTG was tested. Which switch fluorescence ratio did it give?
**A.** 0.996

**Q.** For TCATCAATAG, which switch fluorescence ratio is on record?
**A.** 1.36

**Q.** How did the switch fluorescence ratio turn out when TCATCATCTT was run?
**A.** 0.99

**Q.** TCATCCGTAG was tested. Which switch fluorescence ratio did it give?
**A.** 2.08

**Q.** Which switch fluorescence ratio does the source give for TCATCTCACG here?
**A.** 1.09

**Q.** For TCATGACGCT, which switch fluorescence ratio is on record?
**A.** 0.976

**Q.** TCATGATTTA was tested. Which switch fluorescence ratio did it give?
**A.** 1.01

**Q.** With TCATGCATCA as the sequence, how does the switch fluorescence ratio read?
**A.** 1.01

**Q.** How did the switch fluorescence ratio turn out when TCATGCCACG was run?
**A.** 1.07

**Q.** Which switch fluorescence ratio does the source give for TCATGGAAA here?
**A.** 1.01

**Q.** With TCATGGCCCT as the sequence, how does the switch fluorescence ratio read?
**A.** 1.01

**Q.** TCATGTCCA was tested. Which switch fluorescence ratio did it give?
**A.** 1.01

**Q.** For TCATTAGTCG, which switch fluorescence ratio is on record?
**A.** 1.01

**Q.** For TCATTCTAAG, which switch fluorescence ratio is on record?
**A.** 0.985

**Q.** Which switch fluorescence ratio does the source give for TCATTGAGTG here?
**A.** 1.05

**Q.** For TCATTGATTA, which switch fluorescence ratio is on record?
**A.** 1

**Q.** How did the switch fluorescence ratio turn out when TCATTGGCC was run?
**A.** 1.02

**Q.** How did the switch fluorescence ratio turn out when TCATTGGGCA was run?
**A.** 0.977

**Q.** With TCATTGTAGA as the sequence, how does the switch fluorescence ratio read?
**A.** 1.01

**Q.** With TCATTGTCCA as the sequence, how does the switch fluorescence ratio read?
**A.** 1.01

**Q.** For TCCAAAAGGG, which switch fluorescence ratio is on record?
**A.** 1.01

**Q.** How did the switch fluorescence ratio turn out when TCCAACGGTT was run?
**A.** 1.08
